Source: PubChem BioAssay AID1347073 (National Center for Advancing Translational Sciences (NCATS), 2019)
The campaign covered roughly 45,000 compounds. About 200 (0.44%) were called active. About 7% were inconclusive and are not listed. The call rests on the fitted dose curve; in most records, active means well fitted activation curve with a large enough effect; inconclusive means small, poorly fitted or top-dose-only effect; inactive means no such curve, though single readings can be large or run the other way. The list shows a part of the results.

Experiment: qHTS of TDP-43 Inhibitors: NCGC Sytravon Library Screen; further: 0% is about no effect; nearly all actives have a fitted effect of over 55% in size
Details: yeast TDP-43 toxicity rescue, BacTiter-Glo growth, 24 h; series mostly up to 46.1 µM; growth rescue (activation): at the top concentration
Method in brief: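 TDP-43-expressing yeast, pregrown in raffinose, seeded at OD600 0.02 in galactose medium with compound for 24 hr at 30 deg C. Growth read by BacTiter-Glo luminescence, so rescue of toxicity appears as activation.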

SMILES	growth rescue (activation)
COc1ccc(Cl)cc1NC(=O)C1CC(=O)N(c2ccc(F)cc2)C1 (configuration not stated)	inactive: 7.97%
CCN(CC)S(=O)(=O)c1ccc(NC=C(C#N)C#N)cc1	inactive: 21.6%
CN(C(=O)c1coc(=O)c2ccccc12)c1ccccc1Cl	inactive: 22.4%
O=C(NC1CCN(Cc2ccccc2)CC1)c1c(F)cccc1F	inactive: -0.611%
COc1ccc(NC(=S)Nc2ccccc2OC)c(OC)c1	inactive: 7.49%
CCN1CCN(c2ccc(NC(=O)c3ccco3)cc2Cl)CC1	inactive: 0.3%
O=C(O)c1cccnc1Oc1ccccc1	inactive: 20.3%
COCCCN1CC(=O)N2C(c3cccc(C)c3)c3[nH]c4ccccc4c3C[C@H]2C1=O (some centres not stated)	inactive: 1.92%
COc1ccc(-c2ccc(S(=O)(=O)N3CCCC3)cc2)cc1	inactive: 20.2%
COc1ccccc1CN(C)C(=O)COC(=O)c1c(C)noc1C	inactive: 0.62%
COc1cccc(N2CCN(C3CC(=O)N(c4ccc(Cl)cc4)C3=O)CC2)c1 (configuration not stated)	inactive: 25.4%
O=C(Nc1cccc([N+](=O)[O-])c1)c1cnccn1	inactive: 24%
CCCc1nnc(SCC(=O)NC2CCCCC2)n1CCOC	inactive: -18.1%
Cc1ccnc(NS(=O)(=O)c2ccc(Cl)nc2)c1	inactive: 12.4%
Cc1ccc(C)c(C(=O)CCC(=O)N2CCN(c3ncccn3)CC2)c1	inactive: 27.5%
O=C(O)c1cc(=O)c2ccccc2o1	inactive: 6.11%
Cc1[nH]nc2c1C(c1ccc(-c3ccc(Cl)cc3)o1)C(C#N)=C(N)O2 (configuration not stated)	inactive: 7.63%
O=C(COC(=O)c1cc[n+]([O-])cc1)Nc1ccc(SC(F)F)cc1	inactive: -33.1%
O=C(O)CC1(CC(=O)N2CCOCC2)CCCC1	inactive: 6.45%
CC(C)c1ccc(S(=O)(=O)c2ccc(NN)cc2)cc1	inactive: 20.8%
Cc1ccc(-c2c[n+](CC(=O)N3c4ccccc4Sc4ccccc43)c3n2CCC3)cc1	inactive: -16.9%
O=C(Cc1ccc(Cl)c(Cl)c1)NC1CCCCCC1	inactive: -11.8%

SMILES	growth rescue (activation)
O=C(CCSc1nc(-c2ccco2)cc(C(F)(F)F)n1)NCCc1ccccc1	inactive: -21.5%
O=C(O)CCn1cc(/C=C2\SC(=S)NC2=O)c(-c2ccccc2)n1	inactive: 1.08%
Cc1cc([N+](=O)[O-])nn1CC(=O)N1CCCc2ccccc21	inactive: 11.6%
Cc1cc2cc(C)c3nnc(SCC(=O)Nc4ccc(S(=O)(=O)N5CCCCC5C)cc4)n3c2cc1C (configuration not stated)	inactive: 17.9%
Cc1ccc(C(=O)N/C(=C\c2ccco2)C(=O)NCCN2CCOCC2)cc1	inactive: 7.29%
O=C(NNC(=S)NCc1ccc(Cl)cc1)c1ccc2c(c1)OCO2	inactive: -6.98%
O=C(Nc1nc2ccccc2[nH]1)c1cc(F)cc(F)c1	inactive: 5.43%
O=C1CN(C(=O)COC(=O)CNS(=O)(=O)/C=C/c2ccccc2)c2ccccc2N1	inactive: 4.98%
O=C(CCl)NNc1nc(-c2ccccc2)c2cc(Cl)ccc2n1	inactive: 8.37%
Clc1cnc(N/N=C/c2ccncc2)c(Cl)c1	inactive: 5.34%
Cc1cccc(C)c1NC(=O)CN(C)C(=O)CCC(=O)N1CCOCC1	inactive: 23.1%
COC(=O)C1c2ccccc2-c2ccccc21	inactive: 13.7%
CN(C)S(=O)(=O)c1cccc(NC(=S)NCCc2ccccn2)c1	inactive: 3.27%
COc1ccc(OC2(C)CCN(Cc3ccc(-c4ccccc4)o3)C2)cc1 (configuration not stated)	inactive: 6.18%
O=C(CSc1nnc2c(n1)[nH]c1ccc(F)cc12)NC1CC1	inactive: -7.24%
O=C(CNC(=O)c1ccco1)NCC(=O)OCc1ccccc1Br	inactive: 11%
CC1(C(=O)NS(=O)(=O)C2CC2)CCCN(C(=O)c2ccc(F)cc2Cl)C1 (configuration not stated)	inactive: -3.64%
CCOc1ccccc1N(C)C(=O)c1sc2ncn(CC(=O)N3CCCCC3C)c(=O)c2c1C (configuration not stated)	inactive: 6.69%
COCCN(C(=O)/C=C/c1cccc([N+](=O)[O-])c1)c1c(N)n(Cc2ccccc2)c(=O)[nH]c1=O	inactive: -6.44%
O=C(NC(=S)Nc1ccccn1)c1ccco1	inactive: 15%
O=C(O)CCCC(=O)Nc1ccc(OCc2nc3ccccc3s2)cc1	inactive: 11.9%
COc1ccc(Cn2c(CCC(=O)NCCC(C)C)nc3ncccc3c2=O)cc1	inactive: -2.61%

SMILES	growth rescue (activation)
O=C(NNS(=O)(=O)c1ccccc1F)c1cc(-c2ccccc2)n[nH]1	inactive: -11.4%
CN(CC(=O)NC1CC(C)(C)NC(C)(C)C1)S(=O)(=O)c1cc(Cl)ccc1Cl	inactive: 6.85%
COc1cc(NS(=O)(=O)c2ccc(NC(=O)C34CC5CC(CC(C5)C3)C4)cc2)ncn1	inactive: -28.5%
COc1ccccc1CCc1nnc(CCC(=O)N(C)Cc2cccc3cnccc23)o1	inactive: 1.09%
C#CC[N+](C)(C)CCCCCCCCCCCC	inactive: -53%
CN1CCN(CCCCOc2ccccc2C=O)CC1	inactive: 15.4%
C=CCN1C(=O)C(CC(=O)Nc2ccc(OCC)cc2)N(Cc2ccccn2)C1=S (configuration not stated)	inactive: -3.54%
CCc1ccc(/C=C2/C(=O)N(c3ccccc3)C(=S)N2CC(=O)OC)s1	inactive: 7.85%
CCN(CC)C(=O)c1cccc(-c2csc(C(O)c3ccco3)n2)c1 (configuration not stated)	inactive: 14.4%
O=C(Nc1cccc(S(=O)(=O)N2CCOCC2)c1)C1CCCCN1S(=O)(=O)c1ccccc1 (configuration not stated)	inactive: -7.59%
O=C(c1cc(S(=O)(=O)N2CCCCC2)ccc1N1CCOCC1)N1CCN(Cc2ccccc2)CC1	inactive: 2.64%
Cc1cc(N)n(-c2ccc(S(=O)(=O)c3ccc(C(C)C)cc3)cc2)n1	inactive: 9.03%
CCn1c(CNC(=O)c2cccc(C)c2)nnc1SCC(=O)Nc1nnc(C)s1	inactive: 24.3%
COc1cc(/C=N/Nc2ccc(C(F)(F)F)cn2)cc(OC)c1O	inactive: 26.8%
O=[N+]([O-])c1ccc(Cl)c(NC2=NCCCCC2)c1	inactive: 9.59%
N#Cc1ccc(/C=C2\CCn3c2nc2cc(C(=O)O)ccc2c3=O)cc1	inactive: -4.65%
O=C(N/N=C/c1ccc2c(c1)OCO2)c1ccc(Br)o1	inactive: 24%
CCc1ccccc1Nc1ncnc2ccccc12	inactive: -13.5%
N#C/C(C(=O)NCc1ccccc1)=C1/N=C(NC(=O)c2cccs2)c2ccccc21	inactive: 15.4%
Cc1cc(C)c(S(=O)(=O)N2CCN(C(=O)c3cc4ccccc4o3)CC2)c(C)c1	inactive: 10.8%
N#Cc1ccc(N2C(=O)[C@@H]3C(C(=O)c4ccc5ccccc5n4)=NN[C@@H]3C2=O)cc1	inactive: 10%
O=C1c2cc(N3CCCC3)c([N+](=O)[O-])cc2C(=O)N1c1ccccc1	inactive: 1.24%

SMILES	growth rescue (activation)
O=C(Cc1ccc(Cl)cc1)N/N=C/c1ccncc1	inactive: 7.6%
COc1ccc2c(c1OC)C(=O)N(c1ccccc1)C2=O	inactive: -14.2%
CCOc1ccc(C(=O)NC(=S)Nc2ccc(NC(=O)c3ccco3)cc2)cc1[N+](=O)[O-]	inactive: 10.4%
Cc1ccccc1OCCCCN1CCCCC1	inactive: -12.7%
CC(C)c1ccccc1NC(=O)COC(=O)Cc1c[nH]c2ccccc12	inactive: 15.5%
O=C(CN1C(=O)c2ccccc2C1=O)NCCc1c[nH]c2ccccc12	inactive: 5.23%
COc1cccc(NC(=O)CSc2nnc(NC(=O)C3CCC3)s2)c1	inactive: -11.3%
O=C(C1CCN(c2nnc(N3CCCC3=O)s2)CC1)N1CCN(Cc2ccc3c(c2)OCO3)CC1	inactive: -4.11%
CC(=O)c1cccc(OCc2cc(C(=O)NCc3nc(C)c(C)s3)no2)c1	inactive: 26.3%
COc1ccc(-c2nc(N)n[nH]2)cc1	inactive: 4.21%
Cc1ccnc(NC(c2ccncc2)c2c(C)[nH]c3ccccc23)c1 (configuration not stated)	inactive: 16.1%
COc1ccc(/C=N/OCC(=O)NC(c2ccccc2)c2ccccc2)cc1OC	inactive: 2.37%
Cc1ccc(C(=O)NC(=S)Nc2nc(-c3cccc([N+](=O)[O-])c3)cs2)c(Cl)c1	inactive: -4.25%
CCn1c(=O)c(-c2nc3ccccc3[nH]2)c(O)c2ccccc21	inactive: 2.49%
Cc1ccc(N2CCN(C(=O)c3cccs3)CC2)c(C)c1	inactive: 12.1%
COc1ccc(N2C(=O)CSCC2=O)cc1OC	inactive: 5.29%
CC(=O)c1cc(-c2ccccc2)n(CC(=O)Nc2cccc(C)c2)c1C	inactive: 9.76%
COc1ccc(CCNC(=O)COc2ccc(S(=O)(=O)N3CCCC3)cc2)cc1	inactive: 1.37%
CSc1ccc(Cl)c(C(=O)OCC(=O)N2CCOCC2)c1	inactive: 11.9%
O=C(NCCN1C(=O)S/C(=C\c2ccccc2F)C1=O)C1CCCN1C(=O)c1cccs1 (configuration not stated)	inactive: -7.29%
CCCC(C)c1nnc(NC(=O)C2CC(=O)N(CCc3ccc(F)cc3)C2)s1 (configuration not stated)	inactive: -14.8%
CN(CC(=O)Nc1cccc(S(=O)(=O)NC2=NCCCCC2)c1)Cc1ccc(C(C)(C)C)cc1	inactive: -2.73%

SMILES	growth rescue (activation)
CCN(C(=O)COc1ccc(N(C)S(=O)(=O)c2ccc(NC(C)=O)cc2)cc1)C1CCCCC1	inactive: 8.07%
Cc1nnc(NC(=O)CSc2nnc(-c3ccco3)o2)s1	inactive: 1.47%
O=C(NCc1cccc(C(F)(F)F)c1)c1csc([C@@H]2C[C@H](O)[C@@H](CO)O2)n1	inactive: 2.44%
CS(=O)(=O)N(CC(=O)NCc1ccco1)c1ccc(Cl)cc1Cl	inactive: -1.95%
O=C(COC(=O)c1c2c(nc3ccccc13)/C(=C/c1cccc([N+](=O)[O-])c1)CCC2)NC1CCS(=O)(=O)C1 (configuration not stated)	inactive: 0.331%
O=C(O)c1occc1CSc1ccccc1	inactive: 17%
CC1(C)[C@H]2CC=C(CN3CCC(N4CCC(C(=O)N5CCCC5)CC4)CC3)[C@@H]1C2	inactive: -2.08%
CCCCCOc1ccc(C(=O)CCC(=O)NC(C)c2ccc(S(N)(=O)=O)cc2)cc1 (configuration not stated)	inactive: 8.02%
CCc1nnc(NC(=O)CCNC(=O)c2ccco2)s1	inactive: -16.9%
CCc1nc2c(OCC3CCCCC3)cccn2c1N(C)C(=O)c1ccc(OC)cc1	inactive: -4.63%
Cc1ccc(S(=O)(=O)NCC(=O)NCC(=O)OCC(=O)N2CC(=O)Nc3ccccc32)cc1C	inactive: 0.107%
COCCCNC(=S)N1CCN(C(=O)C(=O)Nc2ccc(C(=O)OC)cc2)CC1	inactive: 17.5%
CCCS(=O)(=O)Nc1ccc2cn[nH]c2c1	inactive: 11.4%
CCN(CC)S(=O)(=O)c1cccc(C(=O)Nc2ccc3c(c2)OCO3)c1	inactive: 20.7%
COc1cc(C(O)c2nc(-c3ccc(N(C)C)cc3)cs2)ccc1F (configuration not stated)	inactive: 18.4%
Cc1ccccc1NC(=O)C1CCCN(S(=O)(=O)c2ccc(-n3cnnn3)cc2)C1 (configuration not stated)	inactive: -0.366%
CC1CN(c2oc(-c3ccco3)nc2C#N)CC(C)O1 (configuration not stated)	inactive: 6.54%
O=C(Nc1ccc(F)cc1)C(c1ccccc1)N1CCN(S(=O)(=O)c2c(F)cccc2F)CC1 (configuration not stated)	inactive: 12%
Cc1nn(CC(=O)O)c(C)c1N	inactive: 28.5%
